Results published in PubChem BioAssay AID1814 (Broad Institute, 2009).
The campaign covered roughly 300,000 compounds. About 22,000 (7.3%) were called active. The inconclusive results got no clear call from the source; some entries with a clear call stand among them for comparison. No stated cut-off is given here; in the data, active means activity score below about -60%; inconclusive means mostly about -28% to -61%; inactive means positive scores.

Assay: Activators via SNCA 5'UTR binding, MLPCN (AID 1814)
Conditions: alpha-synuclein 5'UTR reporter, activators screen; active compounds read low; tested at 7.5 µM

Q: Which activity score does the source give for `CCOCC(=O)Nc1nc2ccc(OCC)cc2s1` here?
A: The activity score was active: -73.2%.

Q: Which activity score does the source give for `Cc1cc(C(=O)Nc2nc3ccc(S(C)(=O)=O)cc3s2)c(C)o1` here?
A: Its activity score is active: -108%.

Q: For `COc1ccc(C(=O)Nc2cc3c4c(c2)C(C)C(=O)N4CCC3)cc1` (stereo unspecified), which activity score is on record?
A: The activity score was inconclusive: -50.1%.

Q: For `COCC(=O)Nc1ccc(Nc2ccccc2)cc1`, which activity score is on record?
A: The activity score was inconclusive: -51.4%.

Q: Which activity score does the source give for `COC(=O)C1=C(NC(=O)c2ccc(Br)cc2)CCS1` here?
A: The activity score was inconclusive: -60.2%.

Q: With `NC(=NC(=O)c1cccc(C(F)(F)F)c1)c1ccc(C(F)(F)F)cn1` as the compound, how does the activity score read?
A: The activity score was inconclusive: -48.7%.

Q: With `CCN(CC)CCCN(Cc1cc2cc3c(cc2[nH]c1=O)OCCO3)C(=O)Nc1ccccc1` as the compound, how does the activity score read?
A: Its activity score is inconclusive: -55.2%.

Q: Which activity score does the source give for `CC(C)c1ccc(/C=N/Nc2ccc(C(=O)O)cc2)cc1` here?
A: Its activity score is inactive: 85%.

Q: With `O=C(O)c1cccc([N+](=O)[O-])c1C(=O)Nc1nc2ccccc2s1` as the compound, how does the activity score read?
A: Its activity score is inconclusive: -49.4%.

Q: With `Cc1ccc(Nc2nnc(SC/C(O)=C(\C#N)c3nc4ccccc4[nH]3)s2)c(C)c1` as the compound, how does the activity score read?
A: The activity score was inconclusive: -50.4%.

Q: Which activity score does the source give for `Cc1ccsc1C(=O)NNC(=S)NC1CCCCC1` here?
A: Its activity score is inconclusive: -47.5%.

Q: Which activity score does the source give for `Nc1ccc(-n2nc3ccccc3n2)cc1` here?
A: Its activity score is inactive: 58.1%.

Q: For `Cc1ccccc1Nc1nc(N)nc(COC(=O)c2cccn2C)n1`, which activity score is on record?
A: Its activity score is active: -122%.

Q: Which activity score does the source give for `COc1ccc(NS(=O)(=O)c2cc(-c3cnc(C4CC4)o3)ccc2C)cc1` here?
A: The activity score was inactive: 82%.

Q: Which activity score does the source give for `CC(=O)c1c(C)[nH]c(C(=O)Nc2nc(C)cs2)c1C` here?
A: The activity score was inactive: 85.9%.

Q: With `CC(=O)Nc1nc(C)c(-c2csc(Nc3cccc([N+](=O)[O-])c3)n2)s1` as the compound, how does the activity score read?
A: Its activity score is inactive: 66.7%.

Q: For `C=C1c2cc(C)c(C)cc2NC(=O)N1c1ccccc1`, which activity score is on record?
A: The activity score was inconclusive: -52.1%.

Q: Which activity score does the source give for `Cc1cc(C)c(C#N)c(SCC(=O)c2cccs2)n1` here?
A: Its activity score is active: -173%.

Q: With `COC(=O)c1cccc(NC(=O)c2ccc(OC)c(Cl)c2)c1` as the compound, how does the activity score read?
A: The activity score was inconclusive: -56.5%.

Q: For `c1ccc(-c2noc(-c3ccc4ccccc4c3)n2)cc1`, which activity score is on record?
A: The activity score was inactive: 76.6%.

Q: For `Cc1cccc(-n2cc(CN3CCCN(C=O)CC3)c(-c3cccc(F)c3)n2)c1`, which activity score is on record?
A: Its activity score is inconclusive: -56.9%.

Q: For `C/C(=N\OCc1ccccc1C#N)c1cc2ccccc2o1`, which activity score is on record?
A: The activity score was inconclusive: -59.4%.

Q: For `CCC(=O)NC(c1ccc(Cl)cc1Cl)c1ccc2cccnc2c1O` (stereo unspecified), which activity score is on record?
A: The activity score was inactive: 75.3%.

Q: For `O=C(/C=C/c1ccccc1)c1ccc2c3c(cccc13)CC2`, which activity score is on record?
A: The activity score was active: -86.5%.

Q: With `COc1ccc(NC(=O)c2cccs2)cn1` as the compound, how does the activity score read?
A: Its activity score is inconclusive: -59.1%.

Q: For `CC(=O)Nc1ccc(NC(=O)C(C)OC(=O)c2ccc(N(C)C)cc2)cc1` (stereo unspecified), which activity score is on record?
A: The activity score was inconclusive: -61.3%.
